These are yes or no findings as the source states them, for the method shown. Some results given as binding are weak or reduced against the parent protein; the word gives no strength. Where a sequence is shown, tags or fusion partners need not be part of it.
Target: recombinant full length Mtb GroEL2 (N-terminal 6XHis-tag, C-terminal S-tag) (Mycobacterium tuberculosis H37Rv), P9WPE7
Assay: SEC; unpublished results: recombinant GroEL2 over a range of concentrations on the size exclusion column; both purified
Settings: remark: other sources report otherwise

B1: recombinant full length Mtb GroEL2 (N-terminal 6XHis-tag, C-terminal S-tag), P9WPE7 1-540 (protein)
chain: MAKTIAYDEEARRGLERGLNALADAVKVTLGPKGRNVVLEKKWGAPTITNDGVSIAKEIELEDPYEKIGAELVKEVAKKTDDVAGDGTTTATVLAQALVREGLRNVAAGANPLGLKRGIEKAVEKVTETLLKGAKEVETKEQIAATAAISAGDQSIGDLIAEAMDKVGNEGVITVEESNTFGLQLELTEGMRFDKGYISGYFVTDPERQEAVLEDPYILLVSSKVSTVKDLLPLLEKVIGAGKPLLIIAEDVEGEALSTLVVNKIRGTFKSVAVKAPGFGDRRKAMLQDMAILTGGQVISEEVGLTLENADLSLLGKARKVVVTKDETTIVEGAGDTDAIAGRVAQIRQEIENSDSDYDREKLQERLAKLAGGVAVIKAGAATEVELKERKHRIEDAVRNAKAAVEEGIVAGGGVTLLQAAPTLDELKLEGDEATGANIVKVALEAPLKQIAFNSGLEPGVVAEKVRNLPAGHGLNAQTGVYEDLLAAGVADPVKVTRSALQNAASIAGLFLTTEAVVADKPEKEKASVPGGGDMGGMDF
For B1, the binding was “binds”.

— paper PMC4022732
